This passage reports inhibition results from ChEMBL document CHEMBL1961873, “Compounds: GSK PKIS; Assays: Nanosyn kinase panel” (2012).

For some of these results: What follows is the remainder of the data, with few or none of the strong results. The entries are a selection whose mix differs from that of the whole data set.

Assay [1] deals with T1, Inhibitor of nuclear factor kappa-B kinase subunit epsilon (Homo sapiens) (UniProt Q14164).
T1 sequence (whole entry): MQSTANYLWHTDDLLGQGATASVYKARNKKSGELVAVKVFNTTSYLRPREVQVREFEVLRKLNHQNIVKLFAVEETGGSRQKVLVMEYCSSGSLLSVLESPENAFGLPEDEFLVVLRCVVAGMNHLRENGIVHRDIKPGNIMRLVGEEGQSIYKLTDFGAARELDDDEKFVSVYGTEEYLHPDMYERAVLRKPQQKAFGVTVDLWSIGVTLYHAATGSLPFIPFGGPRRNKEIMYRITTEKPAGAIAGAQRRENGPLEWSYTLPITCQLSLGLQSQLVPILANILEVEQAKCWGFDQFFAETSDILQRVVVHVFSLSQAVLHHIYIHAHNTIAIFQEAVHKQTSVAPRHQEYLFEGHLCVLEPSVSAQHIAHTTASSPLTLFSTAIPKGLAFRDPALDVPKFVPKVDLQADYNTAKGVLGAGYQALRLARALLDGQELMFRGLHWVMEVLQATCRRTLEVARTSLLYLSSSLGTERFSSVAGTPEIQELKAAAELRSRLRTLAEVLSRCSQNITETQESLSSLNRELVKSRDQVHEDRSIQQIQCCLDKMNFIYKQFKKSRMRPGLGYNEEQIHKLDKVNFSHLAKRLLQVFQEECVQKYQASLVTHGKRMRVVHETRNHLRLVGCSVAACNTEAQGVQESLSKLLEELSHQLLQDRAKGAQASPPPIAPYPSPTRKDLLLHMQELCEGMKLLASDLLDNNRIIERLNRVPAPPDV
The conditions noted are these: at 1 µM.

The target in assay [2] is T2, Serine/threonine-protein kinase Nek1 (Homo sapiens) (UniProt Q96PY6).
T2 sequence (whole entry): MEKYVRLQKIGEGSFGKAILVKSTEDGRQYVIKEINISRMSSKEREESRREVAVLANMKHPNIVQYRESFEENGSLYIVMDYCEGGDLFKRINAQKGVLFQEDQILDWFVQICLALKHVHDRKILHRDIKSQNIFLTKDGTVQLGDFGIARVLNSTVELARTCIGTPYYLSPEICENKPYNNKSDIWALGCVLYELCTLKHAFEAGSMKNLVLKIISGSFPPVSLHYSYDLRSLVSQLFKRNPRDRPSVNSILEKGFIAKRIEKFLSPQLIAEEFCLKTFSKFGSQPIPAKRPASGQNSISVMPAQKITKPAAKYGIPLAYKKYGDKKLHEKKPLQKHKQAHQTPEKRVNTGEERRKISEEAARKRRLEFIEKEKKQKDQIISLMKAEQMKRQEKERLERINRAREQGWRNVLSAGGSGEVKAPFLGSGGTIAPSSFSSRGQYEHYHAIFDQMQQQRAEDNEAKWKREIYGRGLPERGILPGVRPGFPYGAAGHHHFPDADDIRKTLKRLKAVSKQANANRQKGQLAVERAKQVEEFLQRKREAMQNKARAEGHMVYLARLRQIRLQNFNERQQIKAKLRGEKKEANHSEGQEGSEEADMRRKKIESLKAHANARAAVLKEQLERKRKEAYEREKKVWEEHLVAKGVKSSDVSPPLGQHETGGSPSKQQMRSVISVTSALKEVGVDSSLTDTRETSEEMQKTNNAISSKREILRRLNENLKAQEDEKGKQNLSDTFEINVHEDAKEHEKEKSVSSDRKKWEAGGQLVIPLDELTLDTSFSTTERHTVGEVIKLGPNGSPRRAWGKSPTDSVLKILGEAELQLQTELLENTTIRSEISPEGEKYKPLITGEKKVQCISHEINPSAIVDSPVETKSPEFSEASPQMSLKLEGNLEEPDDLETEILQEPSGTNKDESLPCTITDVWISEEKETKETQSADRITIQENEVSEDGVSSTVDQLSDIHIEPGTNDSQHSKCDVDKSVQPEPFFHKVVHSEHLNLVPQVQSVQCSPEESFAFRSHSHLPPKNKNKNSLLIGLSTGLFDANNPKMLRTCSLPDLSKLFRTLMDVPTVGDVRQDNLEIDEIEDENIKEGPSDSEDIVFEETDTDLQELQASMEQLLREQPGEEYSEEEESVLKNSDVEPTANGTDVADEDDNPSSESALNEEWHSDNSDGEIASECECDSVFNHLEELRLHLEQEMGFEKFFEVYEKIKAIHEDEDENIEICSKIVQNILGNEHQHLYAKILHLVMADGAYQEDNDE
The settings on record: at 0.1 µM.

For assay [3], the target named is T2, Serine/threonine-protein kinase Nek1 (Homo sapiens). The settings on record: at 1 µM.
The target of assay [4] is T3, Serine/threonine-protein kinase Nek2 (Homo sapiens) (UniProt P51955).
T3 sequence (whole entry): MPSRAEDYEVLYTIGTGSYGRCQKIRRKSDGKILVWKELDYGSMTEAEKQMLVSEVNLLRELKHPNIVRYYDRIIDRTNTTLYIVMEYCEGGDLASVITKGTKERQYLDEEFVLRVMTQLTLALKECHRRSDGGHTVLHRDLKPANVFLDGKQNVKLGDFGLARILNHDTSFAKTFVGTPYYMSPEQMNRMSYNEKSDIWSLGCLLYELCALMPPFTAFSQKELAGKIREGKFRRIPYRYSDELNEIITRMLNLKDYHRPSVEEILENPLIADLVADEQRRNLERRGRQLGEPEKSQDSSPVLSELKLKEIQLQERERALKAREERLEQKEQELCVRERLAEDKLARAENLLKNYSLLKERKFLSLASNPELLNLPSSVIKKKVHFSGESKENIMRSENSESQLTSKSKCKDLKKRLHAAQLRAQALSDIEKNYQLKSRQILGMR
The conditions noted are these: at 0.1 µM.

The target in assay [5] is T3, Serine/threonine-protein kinase Nek2 (Homo sapiens). The settings on record: at 1 µM.
Assay [6] concerns the target T4, Serine/threonine-protein kinase Nek6 (Homo sapiens) (UniProt Q9HC98).
T4 sequence (whole entry): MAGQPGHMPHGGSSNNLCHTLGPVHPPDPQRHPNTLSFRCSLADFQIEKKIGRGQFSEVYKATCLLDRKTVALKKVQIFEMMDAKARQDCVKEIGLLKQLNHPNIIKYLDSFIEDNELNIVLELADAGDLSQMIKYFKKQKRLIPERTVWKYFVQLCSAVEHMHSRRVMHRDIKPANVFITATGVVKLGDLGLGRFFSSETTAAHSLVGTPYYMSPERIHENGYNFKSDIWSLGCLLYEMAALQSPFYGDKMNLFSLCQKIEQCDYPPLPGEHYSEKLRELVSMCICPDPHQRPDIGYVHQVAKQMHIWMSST
The settings on record: at 0.1 µM.

For assay [7], the target named is T4, Serine/threonine-protein kinase Nek6 (Homo sapiens). The conditions noted are these: at 1 µM.
Assay [8] concerns the target Serine/threonine-protein kinase Nek7 (Homo sapiens) (UniProt Q8TDX7). The settings on record: at 0.1 µM.
Assay [9] shares this target. The conditions noted are these: at 1 µM.
Assay [10] concerns the target T5, Serine/threonine-protein kinase Nek9 (Homo sapiens) (UniProt Q8TD19).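 Note: reported value is the mean percent inhibition of NEK9.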
T5 sequence (whole entry): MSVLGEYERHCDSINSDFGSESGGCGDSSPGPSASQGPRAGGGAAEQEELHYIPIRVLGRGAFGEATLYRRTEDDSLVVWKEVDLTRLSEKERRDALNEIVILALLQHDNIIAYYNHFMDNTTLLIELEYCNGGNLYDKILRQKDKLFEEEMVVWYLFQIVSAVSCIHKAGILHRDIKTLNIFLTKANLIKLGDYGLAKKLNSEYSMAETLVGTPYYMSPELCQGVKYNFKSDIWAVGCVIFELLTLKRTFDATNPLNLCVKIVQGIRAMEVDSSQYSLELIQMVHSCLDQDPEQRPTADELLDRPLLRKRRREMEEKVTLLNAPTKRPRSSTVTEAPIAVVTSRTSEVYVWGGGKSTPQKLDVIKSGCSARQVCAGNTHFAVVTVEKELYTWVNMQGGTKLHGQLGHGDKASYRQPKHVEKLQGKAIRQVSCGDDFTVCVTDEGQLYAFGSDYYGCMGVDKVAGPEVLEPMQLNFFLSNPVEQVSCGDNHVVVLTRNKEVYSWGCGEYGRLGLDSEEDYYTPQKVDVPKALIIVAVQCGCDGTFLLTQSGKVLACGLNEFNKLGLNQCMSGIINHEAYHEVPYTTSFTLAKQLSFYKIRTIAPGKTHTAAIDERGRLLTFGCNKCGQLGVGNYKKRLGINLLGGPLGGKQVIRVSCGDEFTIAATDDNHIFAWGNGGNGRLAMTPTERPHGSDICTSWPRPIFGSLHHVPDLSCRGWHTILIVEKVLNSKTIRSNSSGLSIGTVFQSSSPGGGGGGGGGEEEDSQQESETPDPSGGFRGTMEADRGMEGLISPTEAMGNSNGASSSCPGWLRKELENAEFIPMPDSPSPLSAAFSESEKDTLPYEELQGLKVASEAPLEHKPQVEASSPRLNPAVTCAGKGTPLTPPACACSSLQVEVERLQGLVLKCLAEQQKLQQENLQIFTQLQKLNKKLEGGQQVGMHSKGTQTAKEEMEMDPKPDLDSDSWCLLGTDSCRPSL
The settings on record: at 0.1 µM.

Chain of UniProt Q8TDX7 (Q8TDX7 whole entry, looked up): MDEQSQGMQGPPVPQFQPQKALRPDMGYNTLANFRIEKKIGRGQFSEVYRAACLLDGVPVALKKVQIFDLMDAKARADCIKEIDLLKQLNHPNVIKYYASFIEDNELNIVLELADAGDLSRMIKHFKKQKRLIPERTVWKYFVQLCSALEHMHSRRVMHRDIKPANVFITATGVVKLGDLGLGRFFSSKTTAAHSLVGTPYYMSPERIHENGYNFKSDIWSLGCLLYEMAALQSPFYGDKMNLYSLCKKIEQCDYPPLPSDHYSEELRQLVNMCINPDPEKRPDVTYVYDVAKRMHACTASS

With `NC(=O)CCc1ccccc1Oc1nccc(-c2c(-c3ccc(F)cc3)ncn2C2CCNCC2)n1`, the inhibition (as a rule, the change of the read-out against control, counted positive when it falls) in assay [1] is -2.27%; in assay [2], -0.54%; in [3] it was -0.1%; in [4] it was -1.44%; in [5], -1.37%; in [6] it was 6.14%. Also, the inhibition in assay [7] was -1.16%; in assay [8], -2.98%; in assay [9], 1.8%; in assay [10] it was 0.96%.
In the case of `O=C1NC(=O)C(c2ccccc2)=C1Nc1ccccc1`, the inhibition in assay [1] turned out to be 7.73%; in assay [2] it was 3.46%; in assay [3] it was 5.35%; in [4], 6.03%; in assay [5], 7.56%; in assay [6], 1.23%. In addition, the inhibition in assay [7] came to 1.99%; in [8], 4.69%; in assay [9] it was 7.49%; in assay [10] it was 10.7%.
Regarding `Cc1cccc(Oc2nccc(-c3c(-c4ccc(F)cc4)ncn3C3CCNCC3)n2)c1C`, the inhibition is 5.24% in assay [1]; 2.12% in [2]; 0.4% in [3]; 4.85% in assay [4]; 5.5% in assay [5]; 0.24% in assay [6]. The inhibition worked out at 3.94% in [7], 2.84% in assay [8], 5.48% in assay [9] and 5.19% in assay [10].
As to `CC(C)(C)c1ccc(Oc2nccc(-c3c(-c4ccc(F)cc4)ncn3C3CCNCC3)n2)cc1`, the inhibition in assay [1] was found to be 5.67%; in assay [2], 1.58%; in [3], 2.93%; in assay [4], 5.08%; in assay [5], 4.19%; in assay [6], 8.9%. Besides, the inhibition in assay [7] is 2.85%; in assay [8], 3.54%; in assay [9], 6.77%; in assay [10], 7.57%.
Consider `Fc1ccc(Oc2nccc(-c3c(-c4ccc(F)cc4)ncn3C3CCNCC3)n2)cc1`, for which the inhibition came out at 6.31% in assay [1]; 2.31% in [2]; 1.49% in [3]; 6.1% in assay [4]; 4.39% in assay [5]; 2.41% in assay [6]. The inhibition in assay [7] came to 4.04%; in assay [8] it was 4.05%; in assay [9], 9.66%; in [10], 5.94%.
Turning to `O=C(O)c1ccc(Oc2nccc(-c3c(-c4ccc(F)cc4)ncn3C3CCNCC3)n2)cc1`, the inhibition worked out at 6.26% in assay [1]; 2.39% in assay [2]; 3.41% in assay [3]; 6.33% in assay [4]; 5.48% in assay [5]; 1.53% in [6]. Moreover, the inhibition was determined as 1.36% in assay [7], 3.27% in [8], 9.14% in assay [9] and 2.53% in assay [10].
As to `Fc1ccc(-c2ncn(C3CCNCC3)c2-c2ccnc(Oc3cccc(C(F)(F)F)c3)n2)cc1`, the inhibition in [1] was determined as 6.98%; in assay [2], 1.2%; in assay [3] it was 3.2%; in assay [4], 5.53%; in assay [5] it was 6.98%; in assay [6], 0.69%. In addition, the inhibition in assay [7] was 2.74%; in assay [8], 3.96%; in assay [9], 6.62%; in [10], 4.88%.
